The list shows a part of the results.

This test concerns PfHDP1 homeodomain (GST-tagged). Description: gcPBM binding intensity (ln(normalized median fluorescence intensity)); higher = stronger DNA binding. The method, boiled down:
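For binding intensity, the highest Masliner-normalised natural-log median intensity across replicate spots of either probe orientation was taken. Protein bound to the array was stained with Alexa488 anti-GST antibody and scanned at 488 nm. The protein, GST-tagged P. falciparum DNA-binding domains from E. coli at about 25 μg on average, had been applied for 1 h to an Agilent 4 × 180k array of primer-extended double-stranded 36-bp intergenic genomic probes and negative controls.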
On to “AAAAAAAAAAAAAAAACACACACATGCACATCATAT [CACACA_site8083]”, for which the “gcPBM binding intensity (ln)” value was determined as 8.34.
With “ACAAAATAAAACATCTGTACATATTATTATTATAAG [XGTACX_site4802]” the figure was 6.42; with “TATATTTATAACAACACACACAGATCATAAAACTGC [CACACA_site7086]”, 6.84.
With “ATTAGTATAATGTAACTTAGTTAATAGTGCTAATAT [CACACA_negctrl_site764]” the figure was 7.05.
For TTTTTAATATATTAGGTGCACAATAATACACTTTAT the value was 10.3.
For “TATATATATATTTATACACACACATATATTTATATA [CACACA_site8054]”, the “gcPBM binding intensity (ln)” value came out at 8.22.
For “TATACACTTATTGGTGGTACAATATATAAATATATG [XGTACX_site3289]” the value was 6.12; for “CAAAAGTAAGCACGCACACACAACATGAAATAAAAT [CACACA_site165]”, 7.12; for “TTTTGATCTGAAGGAACCTAAAAAGGGAAGAGAAAA [CACACA_negctrl_site1656]”, 6.57.
Regarding “AAAAAAAAATATACATATATATATATATATATATAT [CACACA_negctrl_site1763]”, the “gcPBM binding intensity (ln)” value turned out to be 9.47.
Turning to “AATAAACATAAATAAAAATTATAAAATATATATATG [CACACA_negctrl_site1709]”, the “gcPBM binding intensity (ln)” value was determined as 6.37.
For “ATAATTCCAAGAATTTCATATATCTGAATTTTAGGT [GTGCAC_negctrl_site283]” the value was 5.98.
Turning to “ATATATATATATATTACACACTTTTTCTTTTTTTTT [CACACA_site2780]”, the “gcPBM binding intensity (ln)” value was found to be 9.01.
For “TTTACATTTCAGTAGACACACAAAAAATAATACTAA [CACACA_site512]” the value was 6.52.
For “CAAGTAGATATTATACGTACATATATATATATATAT [XGTACX_site8349]” the value was 9.31; for “ATATATATAAATAATTGTACATAATAATAAAATATA [XGTACX_site4839]”, 6.63; for “ATATTTTGTAACTATACACACATATTTATATTATAA [CACACA_site7433]”, 6.61.
“ATATAAAATATTACGTGTACACATAAATAAAAATAA [XGTACX_site3746]”: the “gcPBM binding intensity (ln)” value turned out to be 7.58.
In the case of “TAAAAAATATACATTCGTACATATATATTATATATA [XGTACX_site7918]”, the “gcPBM binding intensity (ln)” value was determined as 6.31.
With “TTTTATACATATTTTACACACTAAAATATACCTATA [CACACA_site6286]” the figure was 6.94; with “GAAAAAAAAGCTTGCACACGTATTTGCTTTATGTAT [CACACA_site4931]”, 8.22.
For the sequence “TACATATATATATTATGTACATAAGGTTTGAGTTCA [XGTACX_site2726]”, the “gcPBM binding intensity (ln)” value came to 6.73.
With “TTTTTGGTATTATTGTGTACTTATAAATAATATAAT [XGTACX_site4019]” the figure was 6.47; with “TATAAATATTTATGTACACACATATACATGTTGAAT [CACACA_site5684]”, 6.73.
For “AAAAAAAAAAAAAAAAGTACAAAAAGAAGAAAAAAA [XGTACX_site6521]” the value was 6.21; for “TTTTTTTTTTTTACGTGTACATAAATGTTAAGTAAT [XGTACX_site3901]”, 6.59; for “AAAATATAGGTATGCACACACATATACTTCTGTGCA [CACACA_site1409]”, 10.
With “TTTTTTTTTTTTTTTTTTTTTTTATGTTCTTAAAAA [GTGCAC_negctrl_site62]” the figure was 6.12; with “TCATACATGTATATGTGTACATATAATGTATATTCC [XGTACX_site6082]”, 6.41.
With “TTATATTCTTTTCTCTTTCTACTTTTTTTTTTTTTT [XGTACX_negctrl_site317]”, the “gcPBM binding intensity (ln)” value stood at 6.07.
With “AAGAAAAACTTATATATATATATATATATATATATA [TGCATGCA_negctrl_site466]” the figure was 9.6.
With “ATATGATCATTTTATCATTTTGCTTTTTCTTTTTTT [CACACA_negctrl_site1325]” the figure was 6.44; with “AATTTTGGAACGTGCACACATATGTAATATATATAT [CACACA_site3067]”, 9.89; with “TTTTTTTAATGATATTGTACATTAATAAAAAATATG [XGTACX_site1719]”, 6.3.
As for “TCTTTTTCAAGATGACGTACTTAGATTAATATAAAA [XGTACX_site3931]”, the “gcPBM binding intensity (ln)” value turned out to be 6.25.
For “ATTTGATATATAATAATACACACTTACATAATTAAT [CACACA_site290]” the value was 6.8; for “TAAATACAGAGGAAAATACACACGTATATATATAAA [CACACA_site3410]”, 6.36.
For “AAAAAAAATTTAATTGCACACAGGAAAATATAATTT [CACACA_site3810]” the value was 9.42; for “TATAAATATACAAACACACATACAAACATATATATA [CACACA_site1120]”, 6.97; for “TTAATACCCAGACACACACACACAAAATAAAATACA [CACACA_site7968]”, 6.89.
With “TAAATATATAATAAATGTACATATTAATATTATGGT [XGTACX_site1498]” the figure was 6.81.
As to “CAATGTTAACATATTACACACATATGTATTTATAAC [CACACA_site7314]”, the “gcPBM binding intensity (ln)” value was 6.94.
With “TACACAAACGTTATACGTACACAGGTTTTTCTTTTA [XGTACX_site5427]” the figure was 6.33; with “ATATTGAAATGTTAATAGAAATATATGGTTAAATTG [XGTACX_negctrl_site212]”, 6.25.

These data come from the supplement of paper PMC11417369.
